# Assay results: PubChem BioAssay AID651820 (National Center for Advancing Translational Sciences (NCATS), 2012)
# Screen size: about 340,000 compounds; about 12,000 (3.5%) were called active. Inconclusive results, whose numbers are uncertain, are shown with a selection of clear calls. Calls follow the shape of the dose curve; as a rule, active = well fitted inhibition curve with a large enough effect; inconclusive = small, poorly fitted or top-dose-only effect, or another doubt; inactive = no such curve, though single readings can be large or run the other way. No potency is given beside an inconclusive call; the fits are too rough.
# Assay: qHTS Assay for Inhibitors of Hepatitis C Virus (HCV)
# Conditions: Huh7.5.1 HCVcc-Cre (HCVcc is cell-culture hepatitis C virus) infection, luciferase reporter, 44 h; activity change, negative = inhibition: at 41.8 µM (top of the series)
# Summary of the method: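 Infectious HCV cell culture screen: compound-treated cells (1,000/well, pre-plated 4 h) are infected with HCVcc-Cre at roughly 0.5 moi and grown 44 h. Infection is quantified by luciferase signal after 15 min substrate incubation at room temperature.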
# % is scaled to controls: 0 for no effect and ±100 for the full control effect; potency is read from the fitted curve at half-maximal effect; tags tell the direction and shape of the fitted curve.
Compound,Potency,"activity change, negative = inhibition"
CC(C)(C)n1ncc2c(=O)n(CC(=O)N3CCCc4ccccc43)cnc21,inactive,
NCCc1cnc[nH]1,"inconclusive [inhibitor, single point]",
COc1ccc(NC(=O)c2cc3c(s2)CCC3)cc1S(=O)(=O)N1CCOCC1,"inconclusive [inhibitor, partial curve]",
CC(C)N(C(=O)[C@H]1C[C@H](CC(=O)NCc2ccco2)C(=O)N2CCc3c([nH]c4ccc(Cl)cc34)[C@]12C)C(C)C,"inconclusive [inhibitor, single point]",
COc1ccc(CCn2c(=N)c(C(=O)NCC3CCCO3)cc3c(=O)n4ccccc4nc32)cc1 (stereo unspecified),inactive,
O=C1N(C2CCCC2)C[C@@H]2C[C@@H](c3cn[nH]c3-c3ccc(Cl)cc3)N3CCC[C@@]123,"inconclusive [inhibitor, partial curve]",
C(=C\c1ccccc1)/CN1CCN(c2ncnc3c2oc2ccccc23)CC1,"inconclusive [inhibitor, single point]",
COc1ccc(C2=CC(=O)C[C@H](c3ccc(F)cc3)C2)c(F)c1F,"inconclusive [inhibitor, partial curve]",
C/C=C/C(=O)OCC(=O)Nc1ccc(OC)c(Cl)c1,inactive,
Cc1ccc(Cn2c(=N)n(CC(=O)c3ccccc3)c3ccccc32)cc1,active: 10 µM,
Cc1cc(C)c2nc(C)cc(Nc3ccc(C(=O)NCCO)cc3)c2c1,inactive,
CC(=O)c1ccc(NC(=O)CCNS(=O)(=O)c2cc(Br)cnc2N)cc1,inactive,
CCOc1ccc(CCNC(=O)c2cc(C)on2)cc1OCC,inactive,
CCC(C)(C)n1nnnc1C(c1ccncc1)N1CCC(C)CC1 (stereo unspecified),inactive,
CCOC(=O)c1c(C)oc2ccc(OC(=O)c3cccs3)cc12,"inconclusive [inhibitor, partial curve]",
COC(=O)c1cccc(C23CC4(C2)[C@H](CN(Cc2cccnc2)[C@@H]4c2ccccc2)C3c2ccc(Cl)nc2)c1 (stereo partly specified),"inconclusive [inhibitor, partial curve]",
CCOC(=O)c1oc2ccccc2c1COC(=O)CNC(=O)c1ccccc1OC,"inconclusive [inhibitor, partial curve, poor fit]",
Cc1nc(-c2ccc(Cl)cc2)sc1C1(C)CC(c2ccc(C#N)cc2)=NO1 (stereo unspecified),inactive,
Cc1cc(C(=O)CSc2nc3ccc(Cl)cc3[nH]2)c(C)n1Cc1ccco1,"inconclusive [inhibitor, single point]",
COc1ccc(N2CCN(C(=O)Nc3ccc(S(=O)(=O)N(C)C)cc3)CC2)cc1,"inconclusive [inhibitor, single point]",
O=C(CSc1nnc(COc2cccc3cccnc23)o1)c1ccc(F)cc1,active: 10 µM,
Oc1ccc(C[C@H]2CNCCN2CCCCC2CCCCC2)cc1,"inconclusive [inhibitor, single point]",
C=CCn1c(=S)[nH]c2nc3c(cc2c1=O)CCCC3,"inconclusive [inhibitor, single point]",

Compound,Potency,"activity change, negative = inhibition"
COc1ccc(/C(C)=N/NC(=O)CNC(=O)COc2ccccc2)c(OC)c1,inactive,
COc1ccccc1-n1c(/C=C/c2ccccn2)nc2ccccc2c1=O,"inconclusive [inhibitor, single point]",
Cc1cc(Br)cc(/C=N/NC(=O)c2ccc3c(c2)OCO3)c1O,"inconclusive [inhibitor, partial curve]",
CC1=CC2=NC(=O)C(c3ccccc3)C(=O)N2C=C1 (stereo unspecified),inactive,
O=[N+]([O-])c1cc([N+](=O)[O-])c(Oc2ccc(Cl)c3cccnc23)cc1NN1CCCCC1,inactive,
CCOc1ccc(NC(=S)N(CCc2c(C)[nH]c3ccc(C)cc23)Cc2cccnc2)cc1,,inactive: -8.28% [at 8.37 µM]
Cc1cc(C(=O)NC2CCCc3c2cnn3-c2ccc(C(C)(C)C)cc2)nn1C (stereo unspecified),active: 7.08 µM,
CC1(C)CC(=O)C2=C(C1)N(CC1CCCO1)C(=O)C2(O)C(F)(F)F (stereo unspecified),"inconclusive [inhibitor, single point]",
Cc1cc(C(=O)Nc2sccc2C(N)=O)c(C)o1,"inconclusive [inhibitor, partial curve]",
Cc1ccc(-n2c(C)cc(C(=S)N3CCOCC3)c2C)cc1C,"inconclusive [inhibitor, partial curve]",
CCOc1ccc(-n2c(SCC(=O)NCc3ccco3)nnc2-c2c[nH]c3ccccc23)cc1,"inconclusive [inhibitor, partial curve]",
COc1ccc(N2CCN(Cc3nc4scc(-c5cccs5)c4c(=O)[nH]3)CC2)cc1,"inconclusive [inhibitor, single point]",
C=CCSc1nnc(NC(=O)c2nc(SCC)ncc2Cl)s1,inactive,
CN1CCN(C2Cc3ccccc3Sc3ccc(Cl)cc32)CC1 (stereo unspecified),"inconclusive [inhibitor, single point]",
Cn1c(O)c(C=NCCOc2ccc(Cl)cc2)c(=O)n(C)c1=O,inactive,
C=C(C)COc1ccc(-c2nc(N)ncc2-c2ccccc2OC)c(O)c1,active: 10 µM,
CCOc1ccc(C(=O)C(CN2CCOCC2)c2ccccc2)cc1 (stereo unspecified),"inconclusive [inhibitor, single point]",
CCC(=O)NC(C)C(c1cccs1)N1CCOCC1 (stereo unspecified),"inconclusive [inhibitor, single point]",
COc1ccc(/C=N/Nc2nc(N3CCCC3)nc(N3CCCC3)n2)cc1,"inconclusive [inhibitor, single point]",
C=CCNC(=O)Cc1c(OC)ccc2cc(Br)ccc12,active: 10 µM,
CCc1ccc(C(=O)OCC(=O)c2c(N)n(CC(C)C)c(=O)n(C)c2=O)cc1,"inconclusive [inhibitor, partial curve]",
CCN1CCN(c2cc(C)c3cc(NC(=O)c4ccc(OC)c(OC)c4)ccc3n2)CC1,active: 11.2 µM,
COC(=O)c1ccccc1OCC(=O)N1CCN(c2ccc(F)cc2)CC1,"inconclusive [inhibitor, single point]",
